# In article PMC9456277:
# Protein sequences, listed by entry. Tags and fused reporters are not part of them. Residues count along the entry.
# UniProt Q61056: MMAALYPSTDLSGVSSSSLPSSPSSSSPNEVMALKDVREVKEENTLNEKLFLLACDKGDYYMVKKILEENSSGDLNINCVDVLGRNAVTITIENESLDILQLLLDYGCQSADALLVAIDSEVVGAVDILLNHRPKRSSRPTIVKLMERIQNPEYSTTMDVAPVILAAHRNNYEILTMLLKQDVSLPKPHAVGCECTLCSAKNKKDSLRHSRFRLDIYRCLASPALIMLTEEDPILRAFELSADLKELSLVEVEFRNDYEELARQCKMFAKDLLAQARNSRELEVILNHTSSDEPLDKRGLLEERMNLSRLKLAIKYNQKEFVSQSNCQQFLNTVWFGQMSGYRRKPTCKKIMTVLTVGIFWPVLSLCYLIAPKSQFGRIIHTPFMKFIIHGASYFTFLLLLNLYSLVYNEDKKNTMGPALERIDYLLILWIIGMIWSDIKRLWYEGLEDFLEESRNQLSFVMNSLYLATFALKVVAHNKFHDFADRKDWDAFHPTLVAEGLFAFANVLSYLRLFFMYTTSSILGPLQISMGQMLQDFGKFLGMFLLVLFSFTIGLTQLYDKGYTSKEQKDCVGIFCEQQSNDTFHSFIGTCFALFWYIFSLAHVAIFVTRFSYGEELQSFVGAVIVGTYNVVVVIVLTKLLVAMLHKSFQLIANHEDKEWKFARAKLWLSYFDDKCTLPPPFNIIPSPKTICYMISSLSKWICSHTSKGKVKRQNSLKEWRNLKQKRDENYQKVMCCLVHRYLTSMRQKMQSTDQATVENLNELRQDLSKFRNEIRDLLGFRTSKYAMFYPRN
# UniProt P13595, residues 20-1115: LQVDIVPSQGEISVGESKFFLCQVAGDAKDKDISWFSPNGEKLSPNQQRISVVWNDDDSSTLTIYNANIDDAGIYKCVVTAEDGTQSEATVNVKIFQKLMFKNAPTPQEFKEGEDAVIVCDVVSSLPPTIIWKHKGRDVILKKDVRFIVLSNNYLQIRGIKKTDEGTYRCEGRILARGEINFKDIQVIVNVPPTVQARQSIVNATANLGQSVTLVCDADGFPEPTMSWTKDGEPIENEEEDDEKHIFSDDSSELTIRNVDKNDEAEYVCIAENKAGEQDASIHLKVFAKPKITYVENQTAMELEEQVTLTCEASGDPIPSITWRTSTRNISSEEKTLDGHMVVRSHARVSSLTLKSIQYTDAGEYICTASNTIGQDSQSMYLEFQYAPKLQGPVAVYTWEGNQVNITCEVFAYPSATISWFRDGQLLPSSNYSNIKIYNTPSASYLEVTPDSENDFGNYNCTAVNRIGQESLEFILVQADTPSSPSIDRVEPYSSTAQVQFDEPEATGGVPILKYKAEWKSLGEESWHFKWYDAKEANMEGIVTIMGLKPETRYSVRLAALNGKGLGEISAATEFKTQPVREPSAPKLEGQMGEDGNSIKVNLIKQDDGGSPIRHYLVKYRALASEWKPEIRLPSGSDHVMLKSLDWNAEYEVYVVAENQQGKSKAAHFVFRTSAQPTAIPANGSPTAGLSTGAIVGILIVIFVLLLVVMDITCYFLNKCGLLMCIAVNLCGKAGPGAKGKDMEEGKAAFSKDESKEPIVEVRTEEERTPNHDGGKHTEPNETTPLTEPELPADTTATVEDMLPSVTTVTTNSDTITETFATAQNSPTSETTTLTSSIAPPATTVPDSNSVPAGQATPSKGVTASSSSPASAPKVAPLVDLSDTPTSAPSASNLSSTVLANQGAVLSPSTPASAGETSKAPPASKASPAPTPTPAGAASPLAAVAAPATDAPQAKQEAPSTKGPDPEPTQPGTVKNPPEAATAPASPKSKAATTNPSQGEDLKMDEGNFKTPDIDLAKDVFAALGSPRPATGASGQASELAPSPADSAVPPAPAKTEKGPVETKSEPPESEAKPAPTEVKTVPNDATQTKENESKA
# These are yes or no findings as the source states them, for the method shown. Binding seen in cells or lysates may run through a third protein.
# How the values were obtained:
# [1] = molecular target: transient receptor potential canonical channel 1 (TRPC1) (mouse (endogenous in mouse brain and neurons)), Q61056; experiment: co-IP; detergent extract (1% Nonidet P-40) of young adult mouse brain; IP with TRPC1 antibody H-105, TRPC4/5 antibody H-80, TRPC3/6/7 antibody H-100 or nonimmune Ig on Protein G or A Dynabeads, 2 h at 4 °C; Western blot with NCAM antibodies 5B8, D3 or TRPC3/6/7 antibody H-100; conditions: remark: other sources report otherwise
# [2] = molecular target: neural cell adhesion molecule (NCAM) (mouse (endogenous in mouse brain and neurons)) (UniProt P13595); experiment: co-IP; brain detergent extracts of wild-type and NCAM-deficient mice; IP with NCAM antibody H28 (extracellular domain); Western blot with TRPC1 E-6, TRPC4 N77/15, TRPC5 N67/15 and TRPC3/6/7 H-100
# [3] = molecular target: transient receptor potential canonical channel 1 (TRPC1) (mouse (endogenous in mouse brain and neurons)) (UniProt Q61056); experiment: co-IP; detergent extract (1% Nonidet P-40) of young adult mouse brain; IP with TRPC1 antibody H-105, TRPC4/5 antibody H-80, TRPC3/6/7 antibody H-100 or nonimmune Ig on Protein G or A Dynabeads, 2 h at 4 °C; Western blot with NCAM antibodies 5B8, D3 or TRPC3/6/7 antibody H-100
binder,measurement,setting,value
"transient receptor potential canonical channel 3 (TRPC3), Q9QZC1 1-910 (protein) MSTKVKKCREPARVTLPAPEEEEDGEAEGGESQRRRRGWRGVNGGLEPPCPRAPPSPGPDASSEGSPSRWRTAGMRDKGRRQAVRGPAFMFGARGPSLTAEEERFLDAAEYGNIPVVRKMLEESRTLNVNCVDYMGQNALQLAVGNEHLEVTELLLKKENLARIGDALLLAISKGYVRIVEAILGHPGFAASRRLTLSPCEQELRDDDFYAYDEDGTRFSPDITPIILAAHCHKYEVVHLLLLKGARIERPHDYFCRCSDCAEKQRLDAFSHSRSRINAYKGLASPAYLSLSSEDPVLTALELSNELAKLANIEKEFKNDYRKLSMQCKDFVVGVLDLCRDSEEVEAILNGDLESAEPLERHGHKASLSRVKLAIKYEVKKFVAHPNCQQQLLTIWYENLSGLREQTIAIKCLVVLVVALGLPFLAIGYWIAPCSRLGKILRSPFMKFVAHAASFIIFLGLLVFNASDRFEGITTLPNITVIDYPKQIFRVKTTQFTWTEMLIMVWVLGMMWSECKELWLEGPREYIVQLWNVLDFGMLSIFIAAFTARFLAFLQATKAQQYVDSHVQESDLSEVTLPPEVQYFTYARDKWLPSDPQIISEGLYAIAVVLSFSRIAYILPANESFGPLQISLGRTVKDIFKFMVLFIMVFLAFMIGMFILYSYYLGAKVNPAFTTVEESFKTLFWSIFGLSEVTSVVLKYDHKFIENIGYVLYGIYNVTMVVVLLNMLIAMINSSYQEIEDDSDVEWKFARSKLWLSYFDDGKTLPPPFSLVPSPKSFVYFIMRITNFSKCRRRRLQKDLELGMGNSKSRLNLFTQSNSRVFESHSFNSILNQPTRYQQIMKRLIKRYVLKAQVDKENDEVNEGELKEIKQDISSLRYELLEDKSQATEELAILIHKLSEKLNPSVLRCE",binding,[1],no binding
"transient receptor potential canonical channel 6 (TRPC6) (protein, UniProt Q61143 1-930) MSQSPRFVTRRGGSLKAAPGAGTRRNESQDYLLMDELGDDGYPQLPLPPYGYYPSFRGNENRLTHRRQTILREKGRRLANRGPAYMFNDHSTSLSIEEERFLDAAEYGNIPVVRKMLEECHSLNVNCVDYMGQNALQLAVANEHLEITELLLKKENLSRVGDALLLAISKGYVRIVEAILNHPAFAEGKRLATSPSQSELQQDDFYAYDEDGTRFSHDVTPIILAAHCQEYEIVHTLLRKGARIERPHDYFCKCTECSQKQKHDSFSHSRSRINAYKGLASPAYLSLSSEDPVMTALELSNELAVLANIEKEFKNDYRKLSMQCKDFVVGLLDLCRNTEEVEAILNGDAETRQPGDFGRPNLSRLKLAIKYEVKKFVAHPNCQQQLLSIWYENLSGLRQQTMAVKFLVVLAVAIGLPFLALIYWCAPCSKMGKILRGPFMKFVAHAASFTIFLGLLVMNAADRFEGTKLLPNETSTDNARQLFRMKTSCFSWMEMLIISWVIGMIWAECKEIWTQGPKEYLFELWNMLDFGMLAIFAASFIARFMAFWHASKAQSIIDANDTLKDLTKVTLGDNVKYYNLARIKWDPTDPQIISEGLYAIAVVLSFSRIAYILPANESFGPLQISLGRTVKDIFKFMVIFIMVFVAFMIGMFNLYSYYIGAKQNEAFTTVEESFKTLFWAIFGLSEVKSVVINYNHKFIENIGYVLYGVYNVTMVIVLLNMLIAMINSSFQEIEDDADVEWKFARAKLWFSYFEEGRTLPVPFNLVPSPKSLLYLLLKFKKWMCELIQGQKQGFQEDAEMNKRNEEKKFGISGSHEDLSKFSLDKNQLAHNKQSSTRSSEDYHLNSFSNPPRQYQKIMKRLIKRYVLQAQIDKESDEVNEGELKEIKQDISSLRYELLEEKSQNTEDLAELIRKLGERLSLEPKLEESRR",binding,[2],no binding
same,binding,[3],no binding
"transient receptor potential canonical channel 7 (TRPC7) (protein, UniProt Q9WVC5 1-862) MLGSNTFKNMQRRHTTLREKGRRQAIRGPAYMFNEKGTSLTPEEERFLDSAEYGNIPVVRKMLEESKTLNFNCVDYMGQNALQLAVGNEHLEVTELLLKKENLARVGDALLLAISKGYVRIVEAILSHPAFAQGQRLTLSPLEQELRDDDFYAYDEDGTRFSHDITPIILAAHCQEYEIVHILLLKGARIERPHDYFCKCNECTEKQRKDSFSHSRSRMNAYKGLASAAYLSLSSEDPVLTALELSNELARLANIETEFKNDYRKLSMQCKDFVVGVLDLCRDTEEVEAILNGDVNLQVWSDHHRPSLSRIKLAIKYEVKKFVAHPNCQQQLLTMWYENLSGLRQQSIAVKFLAVFGVSIGLPFLAIAYWIAPCSKLGQTLRSPFMKFVAHAVSFTIFLGLLVVNASDRFEGVKTLPNETFTDYPKQIFRVKTTQFSWTEMLIMKWVLGMIWSECKEIWEEGPREYVLHLWNLLDFGMLSIFVASFTARFMAFLKASEAQLYVDQYVQDVTLHNVSLPPEVAYFTYARDKWWPSDPQIISEGLYAIAVVLSFSRIAYILPANESFGPLQISLGRTVKDIFKFMVIFIMVFVAFMIGMFNLYSYYRGAKYNPAFTTVEESFKTLFWSIFGLSEVISVVLKYDHKFIENIGYVLYGVYNVTMVVVLLNMLIAMINNSYQEIEEDADVEWKFARAKLWLSYFDEGRTLPAPFNLVPSPKSFYYLIMRIKMCLIELCQSKAKRCENDLEMGMLNSKFRKTRYQAGMRNSENLTANSTFSKPTRYQKIMKRLIKRYVLKAQVDRENDEVNEGELKEIKQDISSLRYELLEEKSQATGELADLIQQLSEKFGKNLNKDHLRVNQGKDI",binding,[2],no binding
same,binding,[3],no binding
"transient receptor potential canonical channel 3 (TRPC3) (protein, UniProt Q9QZC1 1-910) MSTKVKKCREPARVTLPAPEEEEDGEAEGGESQRRRRGWRGVNGGLEPPCPRAPPSPGPDASSEGSPSRWRTAGMRDKGRRQAVRGPAFMFGARGPSLTAEEERFLDAAEYGNIPVVRKMLEESRTLNVNCVDYMGQNALQLAVGNEHLEVTELLLKKENLARIGDALLLAISKGYVRIVEAILGHPGFAASRRLTLSPCEQELRDDDFYAYDEDGTRFSPDITPIILAAHCHKYEVVHLLLLKGARIERPHDYFCRCSDCAEKQRLDAFSHSRSRINAYKGLASPAYLSLSSEDPVLTALELSNELAKLANIEKEFKNDYRKLSMQCKDFVVGVLDLCRDSEEVEAILNGDLESAEPLERHGHKASLSRVKLAIKYEVKKFVAHPNCQQQLLTIWYENLSGLREQTIAIKCLVVLVVALGLPFLAIGYWIAPCSRLGKILRSPFMKFVAHAASFIIFLGLLVFNASDRFEGITTLPNITVIDYPKQIFRVKTTQFTWTEMLIMVWVLGMMWSECKELWLEGPREYIVQLWNVLDFGMLSIFIAAFTARFLAFLQATKAQQYVDSHVQESDLSEVTLPPEVQYFTYARDKWLPSDPQIISEGLYAIAVVLSFSRIAYILPANESFGPLQISLGRTVKDIFKFMVLFIMVFLAFMIGMFILYSYYLGAKVNPAFTTVEESFKTLFWSIFGLSEVTSVVLKYDHKFIENIGYVLYGIYNVTMVVVLLNMLIAMINSSYQEIEDDSDVEWKFARSKLWLSYFDDGKTLPPPFSLVPSPKSFVYFIMRITNFSKCRRRRLQKDLELGMGNSKSRLNLFTQSNSRVFESHSFNSILNQPTRYQQIMKRLIKRYVLKAQVDKENDEVNEGELKEIKQDISSLRYELLEDKSQATEELAILIHKLSEKLNPSVLRCE",binding,[2],no binding
